The supplement of paper PMC11417369
± gives the standard deviation of the averaged measurements. Some of the results follow.

Test system: PfAP2-I AP2 domain 3 (GST-tagged)
Experiment: gcPBM binding intensity (ln(normalized median fluorescence intensity)); higher = stronger DNA binding
Summary of the method: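 Binding of GST-tagged P. falciparum DNA-binding domains, expressed in E. coli and used at about 25 μg on average, was carried out for 1 h in 1× PBS containing 1% milk, 0.2 mg/ml BSA, 0.5% salmon testes DNA and 0.03% Triton X-100. The target was an Agilent 4 × 180k array of primer-extended double-stranded 36-bp intergenic genomic probes plus negative controls, read with Alexa488 anti-GST antibody at 488 nm. Binding intensity is the highest Masliner-normalised natural-log median intensity across replicate spots of either probe orientation.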

Sequence | gcPBM binding intensity (ln)
ACCTATATACTAAATGCACACTTATATATTTATATA [CACACA_site5371] | 9.98 ± 0.25
CTATTTTATATGTGCACACATATACTCAGACAAATA [CACACA_site4761] | 10.2
AAAGTAAAAAATCATAGTACACATTTAAATATATAT [XGTACX_site2323] | 8 ± 0.59
GGTATATATTTATAATGTACATATTCATATATATAA [XGTACX_site3291] | 7.76 ± 0.3
TTTTTTAAATTATGTAGTACGATTCATTTTTTATAA [XGTACX_site1101] | 7.59 ± 0.4
TAATATATCAAATGAAGTACTCACATATACATAATA [XGTACX_site6051] | 7.74 ± 0.52
AAGATTTTCCTTGATAGTACACTTATGAAAATTTGT [XGTACX_site3047] | 7.94 ± 0.54
AATATCTTAGTGGATACACACATATAAATGTGGATT [CACACA_site485] | 7.51 ± 0.64
TTTTTTTTTTTTTTTTTTTTTTTGTCTTATTTTTTT [GTGCAC_negctrl_site338] | 8.18 ± 0.93
ATATATTACGACTTCTGTACATAATATATAAAAGAA [XGTACX_site2353] | 7.89 ± 0.4
TAAATTTATAGACACACACACATATAAATAAATATA [CACACA_site6530] | 7.78 ± 0.46
TGAATTAAGATTTATTGTACATAATTTATACCATAT [XGTACX_site7034] | 7.78 ± 0.42
ATATAATATATATATTGTACATATATTTATAAGCAT [XGTACX_site3726] | 7.78 ± 0.45
AATGTGCTCGCTATTACACACTCATTGGGATAAACT [CACACA_site7043] | 7.96 ± 0.57
TATATATATATATATTGTACATTTACCAAATTGTGT [XGTACX_site5791] | 9.41 ± 0.27
TTTAATAATAATACTAGTACACATTCTTTATTATTT [XGTACX_site2671] | 8.13 ± 0.28
TATATAAATAAATATACACACATATATAAATATACA [CACACA_site2982] | 7.42 ± 0.26
TTTTTTTTTTTTTGCACACTTAAATTTGGAGTGTAG [CACACA_site2345] | 9.375 ± 0.064
GAAATAAATATAATATATATATATATATATATATGT [TGCATGCA_negctrl_site216] | 8.25 ± 0.38
AAAAATAAATATATATGTACACATATGTATACAATA [XGTACX_site4692] | 7.65 ± 0.38
GGTATACACAGACATGCATGTAATTATATATAGGGA [TGCATGCA_site83] | 7.91 ± 0.69
TTACAACATGAAAATGTGCACATATATATATATATA | 9.785 ± 0.007
TGAAATTCCATAAAATGTACATATTAGTTTAATTCA [XGTACX_site4031] | 7.48 ± 0.34

Sequence | gcPBM binding intensity (ln)
AATATATTTAATCATACACACATTTATGTACCTATA [CACACA_site1718] | 7.87 ± 0.61
TCGCCCTACAATTTGTTTATATATTAAATAAAATTT [CACACA_negctrl_site883] | 7.92 ± 0.56
CATCATCTTTTAAAGGTGCATAATAATATTGTTAAT | 11.4 ± 0.69
GTCTATTATTTTTGAAGTACAAAAATTTTAGTTAAA [XGTACX_site4708] | 7.93 ± 0.38
ATGTTCTTTAAAACCACACACCCCCCAACCCCCCTC [CACACA_site2373] | 10.6 ± 0.36
TATAATGTTAAATAATGTACATATTTTTTTTTTTTT [XGTACX_site4721] | 7.7 ± 0.18
AAAGCTAATATTATATGTACTTATATATTTATATAT [XGTACX_site4474] | 7.53 ± 0.23
ATATAAATCTACACCGCACACAAAAACAACAAATAT [CACACA_site2506] | 8.44 ± 0.32
AAATAAATGAAACACACACACACAAAAAAAAAAAAC [CACACA_site2625] | 8.04 ± 0.6
CATGTGCATATTAAATGTACATATATACATATATAC [XGTACX_site857] | 9.31 ± 0.16
ATATAGGTATTTAATACACACAAAACTTTCATTCCA [CACACA_site7627] | 7.84 ± 0.45
AAGGATGATACAACTTGTACATATTTGCTTAATATA [XGTACX_site764] | 7.58 ± 0.63
ATATAAATATATTGCACACACAATTATTATTATTAT [CACACA_site7147] | 10.1 ± 0.45
TTTTTTTTTTTCGGGGGTACTAATATATTATTAATA [XGTACX_site7809] | 10.8 ± 0.47
GTTTTTAAGAAAAACACACACTCCTGTTATTTTATA [CACACA_site3696] | 7.67 ± 0.72
AACAAAATTGAAGGAACACACATACAGATATATATA [CACACA_site4264] | 7.84 ± 0.62
TAATAATTAATTAATATAATATTTTTTCATAATTAT [XGTACX_negctrl_site602] | 7.22 ± 0.44
ATAGAAAAAATATACACACACTTATTAAATAAAAAT [CACACA_site7540] | 7.72 ± 0.65
TATATATCAATATGCACACACAAGAAGTAATTATAA [CACACA_site7487] | 8.96 ± 0.22
TAAAAAGTATATAAGAGTACACATATTTATAAATAT [XGTACX_site3084] | 8.03 ± 0.32
AGACTTTGTACAAACACACACATGAGCACAATATTA [CACACA_site6755] | 8.18 ± 0.6
ATAAACAAAGTTAAATGTACAAAGGGGTAAAAAAAA [XGTACX_site83] | 8.22 ± 0.59
